About 260 (0.074%) of roughly 350,000 compounds were called active. The shares of active, inactive and inconclusive entries below differ from those in the screen. Calls come from the whole dose curve; as a rule, active = well fitted inhibition curve with a large enough effect; inconclusive = small, poorly fitted or top-dose-only effect; inactive = no such curve, though single readings can be large or run the other way. Where the call is inconclusive, the potency comes from a doubtful curve fit.
Molecular target: Ferritin light chain (Equus caballus) (UniProt P02791)
Chain of UniProt P02791 (P02791 whole entry, looked up): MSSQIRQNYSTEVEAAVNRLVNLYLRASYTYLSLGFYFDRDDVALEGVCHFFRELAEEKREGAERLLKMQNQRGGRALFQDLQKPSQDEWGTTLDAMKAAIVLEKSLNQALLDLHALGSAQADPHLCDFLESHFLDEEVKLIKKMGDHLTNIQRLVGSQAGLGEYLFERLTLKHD
Experiment: qHTS Assay for Identification of Novel General Anesthetics; note: nearly all actives have a fitted effect of over 20% in size
Settings: apoferritin/1-aminoanthracene competitive binding, fluorescence; activity change, negative = displacement: at 77.5 µM (top of the series)
Summary of the method: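 Horse-spleen apoferritin (10 uM) in 50% saturated 1-aminoanthracene in PBS was incubated 10 min at room temperature with compound. Fluorescence (ex 380, em 535 nm) was normalized to free and bound 1-AMA, with concentration-response fitted by a four-parameter Hill equation.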
% is set by controls: 0 for no effect and ±100 for the full control effect; potency is the fitted concentration of half-maximal effect; tags give direction and shape of the fitted curve.

Potency, active:
c1ccc2c(c1)[nH]c1c(N3CCN(C4CCCCC4)CC3)ncnc12 6.31 µM

Potency, inconclusive:
Fc1ccc(NCc2cccnc2)cc1 35.5 µM [inhibitor, partial curve]
O=S(=O)(Nc1ccc2c(c1)OCO2)c1ccc(Br)s1 56.2 µM [inhibitor, single point]
C[C@H](NC(=O)c1nc[nH]c1C(=O)N1CCN(c2ccccc2)CC1)C(=O)OCc1ccccc1 39.8 µM [inhibitor, partial curve]
CC1(C)CC(=O)c2c(oc3cc4c(cc23)OCO4)C1 28.2 µM [inhibitor, partial curve]
O=C(NCCCc1nc2ccccc2n1Cc1cccc(Cl)c1)C1CCCCC1 35.5 µM [inhibitor, partial curve]
O=S(=O)(Nc1ccc(Oc2ncccn2)c(Cl)c1)c1ccc(Cl)cc1 35.5 µM [inhibitor, partial curve]
Nc1cc(N)nc(SCC(=O)c2ccccc2)n1 31.6 µM [inhibitor, partial curve]
CC1=CCC2C(=O)N(Cc3ccccc3)C(=O)C2C1 (stereo not drawn) 15.8 µM [inhibitor, partial curve]
CCc1cccc(CC)c1NC(=O)C(CC)Sc1nc2ccncc2[nH]1 (stereo not drawn) 44.7 µM [inhibitor, single point]
Cc1ccc(C(C)C)c(OCc2nc(-c3nonc3N)no2)c1 39.8 µM [inhibitor, partial curve]
CC(C)c1cc(C(=O)NCc2ccccc2)no1 22.4 µM [inhibitor, partial curve]
C/C(=N/NC(=O)CSc1nc2ccccc2n1C)c1ccncc1 31.6 µM [inhibitor, single point]
C=CCSc1nc2ccccc2c(=O)[nH]1 20 µM [inhibitor, partial curve]
CCc1ccc(NC(=O)C2CC=CCC2C(=O)O)cc1 (stereo not drawn) 31.6 µM [inhibitor, single point]
Cc1ccccc1C(=O)NC(=S)NCC(=O)c1ccccc1 44.7 µM [inhibitor, partial curve]
O=C(CNc1ccccc1)N/N=C/c1ccc([N+](=O)[O-])cc1 15.8 µM [inhibitor, partial curve]
CC1(c2ccccc2Cl)NC(=O)N(CC(=O)Nc2ccc3c(c2)OCO3)C1=O (stereo not drawn) 25.1 µM [inhibitor, partial curve]
CC(OC(=O)CNC(=O)C12CC3CC(CC(C3)C1)C2)C(=O)Nc1ncc(Cl)cc1Cl (stereo not drawn) 35.5 µM [inhibitor, partial curve]
COC(=O)C1=C(C)N(Cc2ccccc2)C(=NCc2cc(OC)c(OC)c(OC)c2)N[C@H]1CCc1ccccc1 11.2 µM [inhibitor, partial curve]
Cc1cc(=O)[nH]c(SCCc2ccccc2)n1 50.1 µM [inhibitor, single point]
CCOC(=O)C1=C(CN2CCCCCC2)NC(=O)NC1c1ccc2c(c1)OCO2 (stereo not drawn) 35.5 µM [inhibitor, single point]
O=C(O)Cc1ccc(Oc2ncc(C(F)(F)F)cc2Cl)cc1 31.6 µM [inhibitor, single point]
COc1ccc2[nH]c3c(c2c1)CCN1C(=O)N([C@@H](C)C(=O)NC2CCCC2)C(=O)[C@]31C 44.7 µM [inhibitor, single point]
COC(=O)c1ccc(Cn2nc(C(F)(F)F)cc2C)cc1 20 µM [inhibitor, partial curve]
CCOC(=O)C1=C(COC(=O)/C=C/c2ccccc2Cl)NC(=O)NC1C (stereo not drawn) 50.1 µM [inhibitor, single point]
O=C(CSc1ncnc2nc[nH]c12)c1ccc2ccccc2c1 28.2 µM [inhibitor, single point]
CC(C)(C)c1ccc(C(=O)NC(=S)N2CCCCCC2)cc1 22.4 µM [inhibitor, partial curve]
S=c1[nH]nc(C2CCCCC2)n1/N=C/C=C/c1ccccc1 11.2 µM [inhibitor, partial curve]
Clc1ccc(CSc2nnc([C@@H]3CCCN3)o2)cc1Cl 14.1 µM [inhibitor, partial curve]

Activity change, negative = displacement, inactive:
CSc1oc(-c2ccccc2)nc1S(=O)(=O)c1ccc(C)cc1 -14.4%
CCOC(=O)c1cccc(NC(=O)c2ccc3nc(CCc4ccccc4)oc3c2)c1 -4.92%
Cn1c(CN2CCCC2)nc2cc(NC(=O)c3ccc(Cl)cc3)ccc21 0.417%
NC(=S)N=Nc1c(O)[nH]c2ccccc12 -17.5%
C/C(=C\c1ccccc1)CN1CCN(c2ccccc2F)CC1 -6.28%
COc1ccccc1NC(=O)COc1ccccc1C(=O)c1cnn(-c2ccccc2)c1 -18.8%
O=C(Cn1cc2c(n1)CCCC2)NCCCN1CCN(c2ccccc2F)CC1 -8.91%
Cc1ccc(S(=O)(=O)/N=C2/NC(=O)/C(=C/c3ccccc3)S2)cc1 -21.9%
CCOc1cc(S(=O)(=O)N2CCN=C2Cc2ccccc2)ccc1F -3.38%
CCCOc1ccc(C(=O)Nc2ccc3oc(-c4ccc(N(C)C)cc4)nc3c2)cc1 54.2%
CCC(=O)n1nc(-c2ccccc2)nc1NCc1ccccc1 -14.8%
CC(C)c1ccc(NC(=O)CSc2nc3ccccc3nc2N2CCCC2)cc1 -13.9%
Cc1ccc(/C(N)=N/OC(=O)CSc2ccccc2)cc1 -8.57%
COCCNC(=O)c1cc(Sc2ccc(F)cc2F)nc2ccccc12 -12.9%
N#CC1=C(N)Oc2c(oc(CO)cc2=O)C1c1ccccc1[N+](=O)[O-] (stereo not drawn) 31.3%
COC(=O)c1ccc(Nc2cc(C)nc3ccc(C)cc23)cc1 -0.35%
O=C(NCCc1ccccc1)C1CCCN(S(=O)(=O)c2cccnc2)C1 (stereo not drawn) -10.1%
CC12C=CC(=O)C=C1CCC1C3CCC(O)(C(=O)CO)C3(C)CC3OC312 (stereo not drawn) -4.13%

From PubChem BioAssay AID485281 (National Center for Advancing Translational Sciences (NCATS), 2010)
